The other results are listed elsewhere or left out. At the low end of the ranking the order means little.
The sequences below were run against GST-SBP-SLBP (stem-loop binding protein) (UniProt Q14493) (assay: targeted RNA Bind-n-Seq). Conditions: RBNS binding buffer: 25 mM Tris pH 7.5, 150 mM KCl, 3 mM MgCl2, 0.1% Tween, 0.5 mg/mL BSA, 1 mM DTT; 27 nM protein, 750 pM RNA pool; temperature not stated; high values mean tight binding.
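Also: DESeq read counts versus GST-SBP nonspecific binding control pulldown.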

**Q.** For “GGUCACGUCUCAAUCAACUCCUCCGAGGGGGGGAAAACCCCUUUACCCUCACAAUCAACAGCUCGCAGUCAAG”, which binding signal (log2 fold change) is on record?
**A.** -0.18

**Q.** For “GGUCACGUCUCAAUCAACUCUUCUUCCAGGGAAAUCCCUGGUUAUUUCAACAGCUCGCAGUCAAG”, which binding signal (log2 fold change) is on record?
**A.** 0.0519

**Q.** “GGUCACGUCUCAAUCAACUCAUCCUCCAGGGAAAUCCCUGGUAUUUUCAACAGCUCGCAGUCAAG” was tested. Which binding signal (log2 fold change) did it give?
**A.** -0.203

**Q.** “GGUCACGUCUCAAUCAACUCUUACGAGGGGGGGAAAACCCCUUUACCCUCAACUUCAACAGCUCGCAGUCAAG” was tested. Which binding signal (log2 fold change) did it give?
**A.** -0.468

**Q.** How did the binding signal (log2 fold change) turn out when “GGUCACGUCUCAAUCAACUCUUCGUCAGGAGUUUACUCCUGUAUUUUCAACAGCUCGCAGUCAAG” was run?
**A.** -0.00665

**Q.** Which binding signal (log2 fold change) does the source give for “GGUCACGUCUCAAUCAACUCCUUCGAGGGGGGGAAAACCCCUUUACCCUCAAACUCAACAGCUCGCAGUCAAG” here?
**A.** -0.152

**Q.** For “GGUCACGUCUCAAUCAACUCAUUUUCCAGGGAAAACCCUGGCUUAUUCAACAGCUCGCAGUCAAG”, which binding signal (log2 fold change) is on record?
**A.** -0.0462

**Q.** For “GGUCACGUCUCAAUCAACUCAACGGCAGGAGUUUACUCCUGGAAUCUCAACAGCUCGCAGUCAAG”, which binding signal (log2 fold change) is on record?
**A.** -0.11

**Q.** How did the binding signal (log2 fold change) turn out when “GGUCACGUCUCAAUCAACUCAAUUCCCAGGGAAAGCCCUGGCUUUCUCAACAGCUCGCAGUCAAG” was run?
**A.** 0.183

**Q.** How did the binding signal (log2 fold change) turn out when “GGUCACGUCUCAAUCAACUCAUUCUCCAGGGAAAACCCUGGUAUAUUCAACAGCUCGCAGUCAAG” was run?
**A.** 0.155

**Q.** Which binding signal (log2 fold change) does the source give for “GGUCACGUCUCAAUCAACUCCUACGAGGGGGGGAAAACCCCUUUACCCUCCAAUUCAACAGCUCGCAGUCAAG” here?
**A.** -0.164

**Q.** With “GGUCACGUCUCAAUCAACUCCUAAGAGGGGGGGAAAACCCCUUUACCCUCAUAAUCAACAGCUCGCAGUCAAG” as the sequence, how does the binding signal (log2 fold change) read?
**A.** -0.0274

**Q.** “GGUCACGUCUCAAUCAACUCAGUCCCAGGAGUUUCCUCCUGCAUUUUCAACAGCUCGCAGUCAAG” was tested. Which binding signal (log2 fold change) did it give?
**A.** 0.126

**Q.** Which binding signal (log2 fold change) does the source give for “GGUCACGUCUCAAUCAACUCAAAAGAGGGGGGGAAAACCCCUUUACCCUCGGAAUCAACAGCUCGCAGUCAAG” here?
**A.** -0.217

**Q.** Which binding signal (log2 fold change) does the source give for “GGUCACGUCUCAAUCAACUCUUUUCCCAGGGAAAACCCUGGUUAAUUCAACAGCUCGCAGUCAAG” here?
**A.** -0.169

**Q.** Which binding signal (log2 fold change) does the source give for “GGUCACGUCUCAAUCAACUCAAGUCCAGGAGUUUUCUCCUGCAAUUUCAACAGCUCGCAGUCAAG” here?
**A.** 0.169

**Q.** “GGUCACGUCUCAAUCAACUCUUCCUCAGGAGUUUACUCCUGCUUAUUCAACAGCUCGCAGUCAAG” was tested. Which binding signal (log2 fold change) did it give?
**A.** -0.0597

**Q.** “GGUCACGUCUCAAUCAACUCAUUCCCAGGAGUUUUCUCCUGCUAACUCAACAGCUCGCAGUCAAG” was tested. Which binding signal (log2 fold change) did it give?
**A.** 0.00129

**Q.** For “GGUCACGUCUCAAUCAACUCAAUUCCCAGGGAAAGCCCUGGCAUAGUCAACAGCUCGCAGUCAAG”, which binding signal (log2 fold change) is on record?
**A.** 0.0743

**Q.** With “GGUCACGUCUCAAUCAACUCCUCCGAGGGGGGGAAAACCCCUUUACCCUCAAUAUCAACAGCUCGCAGUCAAG” as the sequence, how does the binding signal (log2 fold change) read?
**A.** -0.000509

**Q.** “GGUCACGUCUCAAUCAACUCAUUUCCCAGGGAAAGCCCUGGUUUUCUCAACAGCUCGCAGUCAAG” was tested. Which binding signal (log2 fold change) did it give?
**A.** 0.155

**Q.** For “GGUCACGUCUCAAUCAACUCUUCUUCAGGAGUUUCCUCCUGCUUUUUCAACAGCUCGCAGUCAAG”, which binding signal (log2 fold change) is on record?
**A.** -0.0978

**Q.** “GGUCACGUCUCAAUCAACUCCCUAGAGGGGGGGAAAACCCCUUUACCCUCGUCUUCAACAGCUCGCAGUCAAG” was tested. Which binding signal (log2 fold change) did it give?
**A.** -0.164

**Q.** How did the binding signal (log2 fold change) turn out when “GGUCACGUCUCAAUCAACUCAUUUUCAGGAGUUUGCUCCUGCUAACUCAACAGCUCGCAGUCAAG” was run?
**A.** 0.104

**Q.** “GGUCACGUCUCAAUCAACUCAUUUUCCAGGGAAAACCCUGGUAUUUUCAACAGCUCGCAGUCAAG” was tested. Which binding signal (log2 fold change) did it give?
**A.** 0.0417

**Q.** For “GGUCACGUCUCAAUCAACUCAUCGCCAGGAGUUUCCUCCUGUAUUCUCAACAGCUCGCAGUCAAG”, which binding signal (log2 fold change) is on record?
**A.** -0.0278

**Q.** Which binding signal (log2 fold change) does the source give for “GGUCACGUCUCAAUCAACUCUACUCCAGGAGUUUACUCCUGUUUAUUCAACAGCUCGCAGUCAAG” here?
**A.** 0.13

**Q.** Which binding signal (log2 fold change) does the source give for “GGUCACGUCUCAAUCAACUCUACUCCCAGGGAAAACCCUGGCUUAUUCAACAGCUCGCAGUCAAG” here?
**A.** 0.126

**Q.** Which binding signal (log2 fold change) does the source give for “GGUCACGUCUCAAUCAACUCUUUUUCCAGGGAAAGCCCUGGCUAACUCAACAGCUCGCAGUCAAG” here?
**A.** 0.15

**Q.** “GGUCACGUCUCAAUCAACUCCAUAGAGGGGGGGAAAACCCCUUUGCCCUCAGAAUCAACAGCUCGCAGUCAAG” was tested. Which binding signal (log2 fold change) did it give?
**A.** -0.302

**Q.** How did the binding signal (log2 fold change) turn out when “GGUCACGUCUCAAUCAACUCUAUGGAGGGGGGGAAAACCCCUUUACCCUCGUUUUCAACAGCUCGCAGUCAAG” was run?
**A.** -0.2

**Q.** How did the binding signal (log2 fold change) turn out when “GGUCACGUCUCAAUCAACUCUCUCGAGGGGGGGAAAACCCCUUUACCCUCAACCUCAACAGCUCGCAGUCAAG” was run?
**A.** -0.276

**Q.** With “GGUCACGUCUCAAUCAACUCUAUCCCAGGAGUUUCCUCCUGUUUUUUCAACAGCUCGCAGUCAAG” as the sequence, how does the binding signal (log2 fold change) read?
**A.** 0.0574

**Q.** Which binding signal (log2 fold change) does the source give for “GGUCACGUCUCAAUCAACUCAUUUUCAGGAGUUUACUCCUGUUAUUUCAACAGCUCGCAGUCAAG” here?
**A.** 0.0529

**Q.** With “GGUCACGUCUCAAUCAACUCUCUCGAGGGGGGGAAAACCCCUUUACCCUCAUCCUCAACAGCUCGCAGUCAAG” as the sequence, how does the binding signal (log2 fold change) read?
**A.** -0.296

**Q.** How did the binding signal (log2 fold change) turn out when “GGUCACGUCUCAAUCAACUCAUCCUCCAGGGAAAUCCCUGGUAUAUUCAACAGCUCGCAGUCAAG” was run?
**A.** -0.0133

**Q.** How did the binding signal (log2 fold change) turn out when “GGUCACGUCUCAAUCAACUCAUCGUCCAGGGAAAGCCCUGGCUAUUUCAACAGCUCGCAGUCAAG” was run?
**A.** 0.201
